# Test results from the RNAGym collection of RNA variant scans (doi:10.1093/nar/gkz1192).
# Read counts are not given, so values of variants with three or more changes are uncertain.
# B1: CPEB3 Ribozyme (parent)
# chain: UAACAGGGGGCCACAGCAGAAGCGUUCACGUCGCAGCCCCUGUCAGAUUCUGGUGAAUCUGCGAAUUCUGCUGUAUAUCUC
# Variants of: B1
# Assay: self-cleavage, relative activity (ratio to wild type); higher = more cleavage; in vitro, sequencing
# Summary of the method: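 Relative activity compares each variant's cleaved/total read fraction with that of the unmutated ribozyme. To get these fractions, barcoded CPEB3 ribozyme libraries from rounds of error-prone PCR were transcribed with T7 RNA polymerase for 5 hours at 37°C and then given 15 min of DNase I treatment before EDTA was added. The RNAs were reverse transcribed with template switching and sequenced on Illumina, and DNA sequencing linked barcodes to variants. A minimum of 5 reads applied, and three batches were averaged.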
row,Variant,self-cleavage
1,UAACUGGGGGCCACAGCAGAAGCGUUCACGUCGCAGCCCCUGUCAGAUUCUGGUGAACCUGCGAAUUCAGCUGUAUAUCUC,0.34
2,UAACUGGGGGCCACAGCAGAAGCGUUCACGUCGCAGCCCCUGUCAGAUUCUGGUGAACCUGCGAAUUCUGCAGUAUAUCUC,0.68
3,UAACUGGGGGCCACAGCAGAAGCGUUCACGUCGCAGCCCCUGUCAGAUUCUGGUGAAUCAGCGUAUUCCGCUGUACAUCUC,0.31
4,UAACUGGGGGCCACAGCAGAAGCGUUCACGUCGCAGCCCCUGUCAGAUUCUGGUGAAUCAGCGAAUUCUGCUGUGUAUCUC,0.58
5,UAACUGGGGGCCACAGCAGAAGCGUUCACGUCGCAGCCCCUGUCAGAUUCUGGUGAAUCAGCGAAUUCCGCUGUAUAUCUC,0.3
6,UAACUGGGGGCCACAGCAGAAGCGUUCACGUCGCAGCCCCUGUCAGAUUCUGGUGAAUCAGCGAAUUCUGCUGCAUAUCUC,0.56
7,UAACUGGGGGCCACAGCAGAAGCGUUCACGUCGCAGCCCCUGUCAGAUUCUGGUGAAUCCGCGAAUUCUGCUGUAUGUCUC,0.52
8,UAACUGGGGGCCACAGCAGAAGCGUUCACGUCGCAGCCCCUGUCAGAUUCUGGUGAAUCCGCCGAUUCUGCUGUAUGUCUC,0.26
9,UAACUGGGGGCCACAGCAGAAGCGUUCACGUCGCAGCCCCUGUCAGAUUCUGGUGAAUCCGCGAACUCUGCUGUAUAUCUC,0.35
10,UAACUGGGGGCCACAGCAGAAGCGUUCACGUCGCAGCCCCUGUCAGAUUCUGGUGAAUCCGCGAAUUCUGCAGUACACCUC,1.02
11,UAACUGGGGGCCACAGCAGAAGCGUUCACGUCGCAGCCCCUGUCAGAUUCUGGUGAAUCCGCGAAUUCUGCCUUAUAUCUC,0.59
12,UAACUGGGGGCCACAGCAGAAGCGUUCACGUCGCAGCCCCUGUCAGAUUCUGGUGAAUCCGCGAAUUCUGCUGUACAUCUC,0.99
13,UAACUGGGGGCCACAGCAGAAGCGUUCACGUCGCAGCCCCUGUCAGAUUCUGGUGAAUCCGCGAAUUCUGCUGUACAUCCC,0.68
14,UAACUGGGGGCCACAGCAGAAGCGUUCACGUCGCAGCCCCUGUCAGAUUCUGGUGAAUCCGCGAAUUCUGCUGUAUACCUC,0.49
15,UAACUGGGGGCCACAGCAGAAGCGUUCACGUCGCAGCCCCUGUCAGAUUCUGGUGAAUCGGCGGAUUCUGCUGUAUAUCUC,0.44
16,UAACUGGGGGCCACAGCAGAAGCGUUCACGUCGCAGCCCCUGUCAGAUUCUGGUGAAUCGGUGAAUUCUGCUGUAUAUCUC,0.17
17,UAACUGGGGGCCACAGCAGAAGCGUUCACGUCGCAGCCCCUGUCAGAUUCUGGUGAAUCUGCGAACUCUGCUGUAUUUCUC,0.61

row,Variant,self-cleavage
1,UAACUGGGGGCCACAGCAGAAGCGUUCACGUCGCAGCCCCUGUCAGAUUCUGGUGAAUCUGCGAACUCCGCAGUAUAUCUC,0.16
2,UAACUGGGGGCCACAGCAGAAGCGUUCACGUCGCAGCCCCUGUCAGAUUCUGGUGAAUCUGCGAACUCUGCUGUAUACCUC,0.27
3,UAACUGGGGGCCACAGCAGAAGCGUUCACGUCGCAGCCCCUGUCAGAUUCUGGUGAAUCUGCGAAUCCUGCUGUAUAACUC,0.3
4,UAACUGGGGGCCACAGCAGAAGCGUUCACGUCGCAGCCCCUGUCAGAUUCUGGUGAAUCUGCGAAUCCUGCUGUAUAUCCC,0.42
5,UAACUGGGGGCCACAGCAGAAGCGUUCACGUCGCAGCCCCUGUCAGAUUCUGGUGAAUCUGCGAAUUCAGCAGUAUAUCUC,0.38
6,UAACUGGGGGCCACAGCAGAAGCGUUCACGUCGCAGCCCCUGUCAGAUUCUGGUGAAUCUGCGAAUUCCCCUGUAUACCUC,0.24
7,UAACUGGGGGCCACAGCAGAAGCGUUCACGUCGCAGCCCCUGUCAGAUUCUGGUGAAUCUGCGAAUUCCGCUGUAUACCUC,0.83
8,UAACUGGGGGCCACAGCAGAAGCGUUCACGUCGCAGCCCCUGUCAGAUUCUGGUGAAUCUGCGAAUUCCGCUGUAUAUCGC,0.95
9,UAACUGGGGGCCACAGCAGAAGCGUUCACGUCGCAGCCCCUGUCAGAUUCUGGUGAAUCUGCGAAUUCUGCAGUAUAUCAC,0.64
10,UAACUGGGGGCCACAGCAGAAGCGUUCACGUCGCAGCCCCUGUCAGAUUCUGGUGAAUCUGCGAAUUCUGCCGUAUUUCUC,1.12
11,UAACAAGGGGCCCCAGCAGAGGCGUUAGCGUCGCAGCCCCUGUCAGAUUCUGGUGAAUCCGCGAAUUCAGCUGUAUAUCUC,0.07
12,UAACAAGGGGCCCCAGCAGAUGCGUUCACGUCGCAGCCCCUGUCAGAUUCUGGUGAAUCUGCGAAUCCUGCAGUAUAUCUC,0.07
13,UAACAAGGGGCCCCAGCAGAAGCGUUCAUGUCGCAGCCCCUGUCAGAUUCUGGUGAAUCUGCGAAUUCUGCGGUAUAUCUC,0.07
14,UAACAAGGGGCCGCGGCAGAAGCGUUCACGUCGCAGCCCCUGUCAGAUUCUGGUGAAUCUGCGAAUUCUGCAGUAUACCUC,0.29
15,UAACAAGGGGCCGCAGCAGUAGCGCUCACGCCGCAGCCCCUGUCAGAUUCUGGUGGAUCUGCGAAUUCGGCUGUAUAUCUC,0.11
16,UAACAAGGGGCCGCAGCAGAGGCGUUCACGUCGCAGCCCCUGUCAGAUUCUGGUGAAUCUGCGAAUUCUGCUGUGUAUCUC,0.16
17,UAACAAGGGGCCGCAGCAGAGGCGUCCACGUCGCAGCCCCCGUCAGAUUCUGGUGAAUCUGCGAAUUCUGCAGUAUAUCUC,0.05
